# Reference: the supplement of paper PMC10338343
# ± gives the standard deviation. The entries are a selection whose mix differs from that of the whole data set.
# System: MIWI (PIWIL1) piRISC loaded with L1MC piRNA (30 nt)
# Assay: pre-steady-state target cleavage rate (min^-1); MIWI and MILI are mouse PIWI proteins and EfPiwi is from a freshwater sponge; tags in brackets are library labels; higher = faster piRNA-guided slicing of the target
# Settings: guide: L1MC piRNA 5'p-UAACUAAAUACUAUGCAAGCUGUAGGUCCU; auxiliary factor: 500 nM mouse GTSF1
# Outline: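 The pre-steady-state cleavage rate was obtained by Cleave-'n-Seq with a burst-and-steady-state fit. A transcribed, DNA-blocked target RNA library (0.1 nM) was mixed with 1 nM active affinity-purified piRISC carrying one synthetic guide, with or without 500 nM GTSF1 partner protein, in HEPES–potassium acetate buffer at 33 °C for 0–8 or 0–960 min. Uncleaved targets were sequenced and normalised to depth and to weakly complementary targets, with three trials pooled and k3 capped at 0.0001 min^-1.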
row,Sequence,pre-steady-state target cleavage rate
1,UCCUGCUACAGGAUGCAUAGUAUUUAGAAA,0.158 ± 0.038
2,UCCUGGAUGUCGAAGCAUAGUGUUUAGUUA,0.00347 ± 0.0034
3,UGGACCUACAGCUUCGAUAGUAUUUAGAAA,0.0441 ± 0.0077
4,ACCUCCUACAGCUUGCAUAGUAUUUUCAAA,0.582 ± 0.073
5,UCCUGGAUGUCCUUGCAUAGUAUAAAGUUA,0.00941 ± 0.0045
6,UCCUGGAACAGCUUGCAUACUAUUUACAAA,0.0814 ± 0.019
7,UCCUGCUACAGGAUGCAUAGUAUUUUCAAA,0.0394 ± 0.011
8,UCCUGGAACAGCUUGGUAAGUAUUUAGUUA,0.00797 ± 0.0031
9,UCCUGGUACACGUUGCAUAGUAUUUAGAAA,0.0204 ± 0.01
10,UCCACCUACAGCUUGCGAUAGUAUUUAGUUA,0.0565 ± 0.018
11,UCCUGCUACACCUUGCAUAGUAUUUUCAAA,0.205 ± 0.051
12,UCCUGGAUCAGCUUGCAUAGAAAUUAGUUA,0.0148 ± 0.0062
13,UCCUGCUACAGCUUCGUUAGUAUUUAGUAA,0.0612 ± 0.014
14,UCCUCCUACAGGAAGCAUAGUAUUUAGAAA,0.0935 ± 0.016
15,UCCUGGAUGUCGUUGCAUAGUAUUUAGUGUA,0.00426 ± 0.0033
16,UCCUGGAUGUGCUAGCAUAGUAUUUAGAUA,0.0175 ± 0.0055
17,AGGACCUACAGCUUGCAUAGAUAUUAGUUA,0.187 ± 0.06
18,UCCACCUACAGCUUGCAUAGUAAUUUCAAA,0.269 ± 0.058

row,Sequence,pre-steady-state target cleavage rate
1,UCCUCCUACAGCAACCAUAGUAUUUAGUUA,0.188 ± 0.026
2,UCCUGGAUGUCCUAGCAUAGUAUUUACUUA,0.013 ± 0.0057
3,UCCUGGAUGAGCAUGCAUAGUAUUUACAAA,0.0519 ± 0.018
4,UCCUGGAUGUGCUAGGAUAGUAUUUAGUUA,0.011 ± 0.0038
5,UCCUGGAUGUCGAUGCAUAGUAUUUUGUUA,0.00674 ± 0.0031
6,UCCUGCUACAGCUUGCAUAGUUUUUAGAAA,0.124 ± 0.025
7,AGGACCUACUCGUUGCAUAGUAUUUUCAAA,0.248 ± 0.044
8,UCCUGGAACAGCUUGCAUAGUAAUAAGUUA,0.0962 ± 0.016
9,AGGACCUACAGCUUGCAUAGUAUUAUCAAA,0.391 ± 0.053
10,UCCACCUACAGCUUGCAUAGUUAAUACAAA,0.0374 ± 0.014
11,UCCUGGUACAGCUACCAUAGUAUUUAGUUA,0.366 ± 0.05
12,UCCUGGAUGUGCAACCAUAGUAUUUAGUUA,0.00823 ± 0.0027
13,UCCUGGAUCAGCUUGCAUAGUAUUUGUUA,0.137 ± 0.025
14,UCCUGGUACAGCUUGCAUAGUAUAUUCAAA,0.178 ± 0.054
15,UCGACCUACAGCUUGCAUAGUAAUUACAAA,0.298 ± 0.048
16,UCCUGGAACAGCUUCGAUAGUAUUUAGAAA,0.0121 ± 0.0047
17,UCGACCUACAGCUUGCAUAGUUUUAGUUA,0.0671 ± 0.024

# Same assay, conditions: guide: L1MC piRNA 5'p-UAACUAAAUACUAUGCAAGCUGUAGGUCCU; auxiliary factor: none (no GTSF1)
row,Sequence,pre-steady-state target cleavage rate
1,UCCUGGAUGUCGAACGUAUGUAUUAAGAUA,< 0.0001
2,UCCUGGAUGUCGAACGAUAGUAAUAAGUUA,< 0.0001
3,UCCUGGAUGUCGAACGAUAGUAAUUACUUA,< 0.0001
4,UCCUGGAUGAGCUUGGAUAGUAUUUACUUA,0.00357 ± 0.0031
